Experimental data as given in the supplement of paper PMC12632987.
The full ranking holds about 4,500 sequences; the median of “median log2 fold change of GCK-ALFA target abundance (FLAG IP / Myc IP barcode read proportion)” is about 0.078, and the lowest 2% start at about -0.6. Some of the results follow.

B1: GBRAP_35_5619 (protein)
chain: NIDEETLELSLDVLEDAVEALEEEDAKKLAPALVKIAESFLKILEQEKKNVKNAKEYVKKAIELLKKAIEILSKYPELKEEKEKLEEIKKKLEELLKELE
B2: GBRAP_184_5342 (protein)
chain: GTIEAHIENKSLEETVKEAEKYIKEAAEKGEDLIISVDASGFSDEELVELVEKIGKIAKEEGVKNLTLGLDKAVDEETADKLIEVADKYGIKLTVALEDE
B3: GBRAP_160_4160 (protein)
chain: SEEVEELIKEINEIFEEMKKDIEGESIEQRQVIIAGYMGEIIMLLFESPVVSEEVVDFAVELEDELVATLKANPDLTLEEIKALIDEVREKILKKIKESA
B4: GBRAP_160_4254 (protein)
chain: SEEIEEIAEELREEMEEIIAEAAELTPEELAALIAGTIGSAIMELIEKGLITDEQEDELIELRDEAVETALRKEELTLEELKRRLREILEKMLEVLEKAK
B5: GBRAP_11_2834 (protein)
chain: EKEKLKELAKKAEEVAKKLEKLIESGNPSEEELKELLKLAEELLKEVKEYGDESLIKIAEIMLEEIKKAIEDPENQKEYLEHALAFARVLEGQYLLELEE
B6: GBRAP_160_4583 (protein)
chain: SAALEKAKKKVDEIGEEAKELVKGQTPEERANIVAVAGGELIMELSELPEVSDELLDEVDEIYDELVETILSNPNITEEEVKKLIEEAGEKIKKALDESF
B7: GBRAP_128_3458 (protein)
chain: STEEVVAWTRETMEKAKEASPEEARELFEELAERLLTLSLEEVEAAVEAIIERLPELSAEKLEILAEVFDEARPRFTPEKAALVAEVISEALLLAEELEE
B8: GBRAP_160_4433 (protein)
chain: SATLDKAIANIKALTDEAAEMMAGQSAAQRQTVVRVMEGEILLELEDLGLLTDELDALIEASTAAIVADIEANPDISQAELTARLQAHADAVAALLKKLF
B9: GBRAP_184_5270 (protein)
chain: TVVRVELEAATAEEAIAALRAAAAAARAAGAQLELTILLRGASVEGVIALLDLLAELKAEGVVRAATVGVELDATEEEVDTLVAAADAAGVRLVIALPEE
B10: GBRAP_14_3811 (protein)
chain: KEKLIEEIKKILEELRRELVEELGLDEKEVRELIERAIKEIEEAIETKENPEEEIEKIMDELRAEIEKLAAAKGADVAAGARALVDDAEYEIDEAIEKYS
B11: GBRAP_160_4613 (protein)
chain: SAKMEKLKKEVNELFEEAKEMVKGETPENRATIVDVTIGQIILLAEELEVLSDESLEKIDEIGDELVDYIKENPDLTDEEIEELIDEAREKILKIIDEDE
B12: GBRAP_78_6696 (protein)
chain: EVEELLEELLKKIGEFATELSKIDTPLAQEALGHLVDAADYVHEAIETGGDEEHLKEANKHLKKALELLKQLDPELAERFEKEVLELLKEIAEKLGIELE
B13: GBRAP_128_3167 (protein)
chain: SSEETVEKVRKLAEEMIKASKEEAKKLAKEIADIFLEADLETAEKIAEVIIELLPKMTEEHLEILMDVLREKLPLFTPEKQELANEVMVAAGEQILELEE
B14: GBRAP_53_6391 (protein)
chain: GEERLEELIEELNRLIEELKTADPETAIKLAREAVELLLELAELGLPEEELVELVRRFAEAARPKPELEPVLVELAKRLAALGREEAAAEVAEALVEELE
B15: GBRAP_11_2857 (protein)
chain: KKEKLKEAAELARKAAEALEKLLKEGVDDKELQKKIEELLKKLLELVKEYGDPDLIKLAEIALENFQKAKKDPKNAEKYIKEALAAVRVLEGNLLLEIDE
B16: GBRAP_106_2563 (protein)
chain: SKLEELKEFFEKTLKEEMAKVPAVTAEIVARFGEDAAEATAAVTAHAFDYVNNKVAEKMKSLGIDNPELIKRLRDTLHELKDAPLEEQIEAGKKVIEEGF
B17: GBRAP_160_4036 (protein)
chain: DPKLEKLKEFAKEVFEEAKELVEGETVEQAANIVAVAAGEVIMEAEELGIDDDELEDFIDEVGDEAVAYLLANPDLTEEEIKKLIEEAREKILEEIEKRS
B18: GBRAP_160_4547 (protein)
chain: SEKVEELIKDLKERTEFIKSLVDEVSIDELINAVDVEFGSFILEGVELGVLSDELEEELDEIRDELIKKLKENKNASPEEKKKMIEEATEKMIEALKKES
B19: GBRAP_172_5009 (protein)
chain: EPVLIRVVIDSEDAEEAIEEIRRVLEEASKKKDAIVAIAVRVSDEEKAERVEEESERLAKKYPNVVVEIAVTYDPSLDLEKIAEALLLEAEEEYEERKKK
B20: GBRAP_11_2635 (protein)
chain: KKEIIEKAAKLAAEAEKLLEKLLKEGVDNEKLLEELEKKLEELKKLVEKLGNKALINEVEVAEELLKKLKEDPENAEFYANLLLAQIRIIKADLEELLEE
B21: GBRAP_184_5121 (protein)
chain: AVEHRSVEGEKAEELIAKATAVVEEAAAAGKKLVLHVFAKNMSVEEIIRVIEHLGALKKAYPQVEIILHVEDERSEEEVDKIVEAADKAGVRVVIALKEE
B22: GBRAP_160_4234 (protein)
chain: SEVVEKLVKVVRDTFLEALELIEGESLEERKVILDVAVGEVILEASEIEGVTDEMEEVVDEMSEKLAEELLKARDKSLEEKKKLVEKMVEKLRKELEKLA
B23: GBRAP_160_4391 (protein)
chain: MEAFKKLAEEVKEILDEAIKLIEGESKEERRVIVDVALGEILLAAFSNDALSDEQEEEIAEILDRGRERIREAIEEGLEAVVKELERTREELLEAIEKSA
B24: GBRAP_125_3088 (protein)
chain: AEAALAADLRTFALALGLSEADAAEAAALAAASSVRQTLYAIFAAEGWEELAELVEKLTEEQARAVLRALAADLAANPDLSVEEVKARARALIEEALAAA
B25: GBRAP_24_5420 (protein)
chain: KKVKVTIDIIANLSPENEKKAQELAKEVAEKIKTLTPEEAAKAVKEFLEKVASLVDNELSVVTLEIETDEEKAEAIIDAALEAEKEIGNVKVVIGTEDLE
B26: GBRAP_78_6595 (protein)
chain: KVEELLDKAMEELGKAEKLAAKLPEEKANEILDELVEAASYLLEAEENGYDLKYFEEALKELKKALELAKKLDLPEAPELIKELEKAIEYLEKAIEELKK
B27: GBRAP_128_3318 (protein)
chain: MDEERLAEFEALAKALKTADEAEAAKLTAEMVALIGELNEEEREKAAEIFEKALKELDAAKLDVVADTLREERPKLDPLAARVVADLEVEALNLAEEKEE
B28: GBRAP_57_6441 (protein)
chain: MSRLEKAEELAEKIRKMLEENAPKEEILKAFKELLDLLSREGLLDLALLLDPSARADDSKEELKEKLLEIFRKALEEEGKEAALDMVDLALGVLEMEESE
B29: GBRAP_160_4047 (protein)
chain: SEKVKKAKEFATKEFDETIALMEDLSPEEAAVAMEVTVGQVLLEAEELGIETTPELDKVLDRARAMRAAVRADPSTTVEQVIAAAKELREEFLKALEKQD

Biological target: GABARAP, O95166
Sequence (O95166 whole entry, the tested form may be a part): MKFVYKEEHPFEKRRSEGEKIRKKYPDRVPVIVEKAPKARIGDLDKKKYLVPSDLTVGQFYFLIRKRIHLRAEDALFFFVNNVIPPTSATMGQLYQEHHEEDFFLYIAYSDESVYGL
Assay: median log2 fold change of GCK-ALFA target abundance (FLAG IP / Myc IP barcode read proportion) (log2 ratio); each designed protein is fused to an ALFA-tag nanobody in HEK293 cells to bring the named protein to FLAG-tagged glucokinase (GCK); Myc marks an untargeted standard; higher = target protein stabilised (more abundant)
Conditions: target protein: 3xFLAG-MCP-GCK-ALFA reporter; HEK293 landing pad (RPLP)
Method in brief: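 The readout is target abundance, the per-binder median log2 ratio of FLAG to Myc barcode read proportions. It came from HEK293 landing-pad cells carrying a recombined ALFA-nanobody-fused binder library, induced with 2 μg mL^−1 doxycycline and transfected with a plasmid for a FLAG-tagged target and a Myc-tagged standard. After 48 h, lysates were immunoprecipitated with anti-FLAG and anti-Myc, and circular RNA barcodes were reverse transcribed, amplified and sequenced. Each barcode needed a proportion of at least 10^−7 in both replicates and each binder at least 3 barcodes per replicate, a pseudocount of 10^−6 was added, and the replicates were pooled.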

In order of rising “median log2 fold change” value:
1. B17  -0.404
2. B11  -0.315
3. B25  -0.311
4. B6  -0.303
5. B22  -0.29
6. B9  -0.26
7. B23  -0.2
8. B3  -0.175
9. B4  -0.152
10. B8  -0.0508
11. B28  -0.0352
12. B18  0.00329
13. B19  0.0492
14. B15  0.0648
15. B21  0.0756
16. B29  0.0852
17. B7  0.0997
18. B24  0.115
19. B20  0.191
20. B5  0.199
21. B14  0.2
22. B13  0.235
23. B12  0.243
24. B2  0.256
25. B16  0.276
26. B26  0.326
27. B1  0.344
28. B27  0.374
29. B10  0.612
